Out of some 410,000 compounds screened, about 6,400 (1.6%) were called active. The shares of active, inactive and inconclusive entries below differ from those in the screen. The call rests on the fitted dose curve; in most records, active means well fitted inhibition curve with a large enough effect; inconclusive means small, poorly fitted or top-dose-only effect; inactive means no such curve, though single readings can be large or run the other way. No potency is given beside an inconclusive call; the fits are too rough.
Each compound was assayed against Glucagon-like peptide 1 receptor (Homo sapiens) (UniProt P43220) (assay: qHTS of GLP-1 Receptor Inverse Agonists (Inhibition Mode)). Conditions: HEK293 GLP-1R CRE-luciferase, luminescence, 24 h, GLP-1R form is constitutively active; series mostly up to 38.3 µM.
In short: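 Luminescence readout: a drop in cAMP-driven luciferase signal flags inverse agonism at a constitutively active GLP-1R stably expressed in HEK293. Compound exposure lasted 24 hr at 37 deg C, 5% CO2.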
Further: nearly all actives have a fitted effect of over 55% in size.
Potency means the concentration at half of the fitted maximal effect; tags describe the fitted curve by direction and shape.

Chain of UniProt P43220 (P43220 whole entry, looked up): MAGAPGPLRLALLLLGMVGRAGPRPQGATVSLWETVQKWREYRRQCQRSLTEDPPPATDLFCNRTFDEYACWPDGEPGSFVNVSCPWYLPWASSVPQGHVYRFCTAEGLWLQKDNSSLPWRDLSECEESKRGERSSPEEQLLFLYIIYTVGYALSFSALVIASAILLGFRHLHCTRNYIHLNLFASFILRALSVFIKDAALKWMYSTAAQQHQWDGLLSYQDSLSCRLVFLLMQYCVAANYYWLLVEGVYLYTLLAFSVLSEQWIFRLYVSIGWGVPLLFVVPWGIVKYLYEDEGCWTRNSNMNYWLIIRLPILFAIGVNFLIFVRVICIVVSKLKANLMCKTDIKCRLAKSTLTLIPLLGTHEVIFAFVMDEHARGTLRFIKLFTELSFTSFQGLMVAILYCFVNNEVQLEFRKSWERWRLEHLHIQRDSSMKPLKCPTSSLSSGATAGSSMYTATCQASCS

Row | Compound | Potency
1 | CN(C)CCNC(=O)c1cccc(-c2cnc3c(NC=O)cc(/C=C/c4ccccc4)cn23)c1 | inconclusive [inhibitor, partial curve]
2 | NNc1nc(N)c2c(n1)-c1ccccc1CC21CCCC1 | inconclusive [inhibitor, partial curve, poor fit]
3 | COc1ncc(-c2c(-c3ccccc3OC)sc3ccccc23)cn1 | inconclusive [inhibitor, single point]
4 | COc1ccc2c(C)c(C(=O)N3CCN(Cc4ccccc4)CC3)oc2c1 | inconclusive [inhibitor, single point]
5 | CCCC[C@@H]1CNCCN1CCc1cccc(F)c1 | inconclusive [inhibitor, single point]
6 | CC(NC(=O)C1CCCN1S(=O)(=O)c1ccc2c(c1)n(C)c(=O)c(=O)n2C)c1ccccc1 (centres undefined) | inactive
7 | CN1CCCN(C(=O)CNC(=O)c2ccc(Cl)cc2Cl)CC1 | inconclusive [inhibitor, partial curve, poor fit]
8 | O=S1(=O)CCC(N=Cc2cc(Br)ccc2O)C1 (centres undefined) | inactive
9 | Nc1nonc1C(=O)NCCNCc1cc(Br)ccc1OCc1ccccc1F | inconclusive [inhibitor, partial curve, poor fit]
10 | COc1cc(CNC(C)c2ccccc2)cc(Cl)c1OCC(=O)Nc1ccccc1 (centres undefined) | inconclusive [inhibitor, partial curve, poor fit]
11 | Fc1cccc(CSc2nc(NCCc3ccccc3)c3ccccc3n2)c1 | inactive
12 | O=C(/C(=C/O)N=Nc1ccccc1Cl)c1ccccc1 | inconclusive [inhibitor, single point]
13 | O=C1NC[C@H](CCCCN2C[C@H](Cc3ccccc3)N(CCC3CCCCC3)C(=O)C2=O)N(CCc2ccc(O)cc2)C1=O | inactive
14 | CCOC(=O)N1CCC(N2Cc3cccc(C(=O)Nc4cc(F)ccc4F)c3C2=O)CC1 | inactive
15 | NC(=O)c1cc2c3ccccc3ccn2c1-c1ccccc1 | inconclusive [inhibitor, partial curve, poor fit]
16 | Cc1cc(C(C)(C)C)cc(C)c1CCNC(=O)c1ccc[n+]([O-])c1 | inconclusive [inhibitor, partial curve, poor fit]
17 | O=C(CCC1CCCCC1)Nc1cc(Cl)ccc1N1CCOCC1 | inconclusive [inhibitor, single point]
18 | CCCCC(CC)CNC(=O)CCS(=O)(=O)c1cccc2nsnc12 (centres undefined) | inconclusive [inhibitor, partial curve, poor fit]
19 | Cc1ccccc1-c1nn2c(=O)cc(CN3CCN(C(=O)c4ccccc4Br)CC3)nc2s1 | inactive
20 | CCOC(=O)N1CCN(C(=O)c2cnn(-c3cccc(F)c3)c2-n2cccc2)CC1 | inactive
21 | Cc1ccc(-c2nc(NCCN(C)C)c3ccccc3n2)cc1 | inconclusive [inhibitor, partial curve, poor fit]
22 | COc1ccc(CCNC(=O)Cn2c(-c3cccs3)cc3cc(F)ccc32)cc1OC | inactive

Row | Compound | Potency
23 | COc1ccccc1C1SCCN1S(=O)(=O)c1ccccc1 (centres undefined) | inconclusive [inhibitor, single point]
24 | O=C(CCNS(=O)(=O)c1ccc(Br)cc1)NC1CCN(Cc2ccccc2)CC1 | inconclusive [inhibitor, single point]
25 | COc1ccc(C(C)(O)c2nc(-c3ccc(Cl)cc3)cs2)cc1 (centres undefined) | inconclusive [inhibitor, partial curve, poor fit]
26 | COc1ccc2oc(C(=O)OCC(=O)Nc3cc(S(=O)(=O)N4CCOCC4)ccc3C)c(C)c2c1 | inactive
27 | COc1ccc(NC(=O)c2oc3ccccc3c2NC(=O)c2cc(OC)c(OC)c(OC)c2)cc1 | inconclusive [inhibitor, full curve, poor fit]
28 | Cc1c(C(=O)N2CCCCCC2(C)C(=O)NCC(C)C)oc2ccccc12 (centres undefined) | inconclusive [inhibitor, partial curve, poor fit]
29 | Cc1cc(N2CCN(c3ccccc3)CC2)nc(-c2ccccc2)n1 | inconclusive [inhibitor, single point]
30 | CCN1CCN(CCCNC(=O)Cn2nc(C)n3nc(-c4ccccc4)cc3c2=O)CC1 | inconclusive [inhibitor, partial curve]
31 | COc1cc(Cl)c(C)cc1NC(=O)NC1COc2ccccc2C1 (centres undefined) | inactive
32 | COc1cc(NC(=O)CCN2CC(C)OC(C)C2)cc(OC)c1 (centres undefined) | inactive
33 | C1=CCC(CN2CCN(C3CCCCCC3)CC2)CC1 (centres undefined) | inactive
34 | CCC(C)NC(=S)N(CCc1ccccc1)Cc1cc2cc(OC)c(OC)cc2[nH]c1=O (centres undefined) | inconclusive [inhibitor, single point]
35 | CCn1cc(C(=O)O)c(=O)c2cc(F)c(N3CCN(S(=O)(=O)c4ccc(NC(=O)OC)cc4)CC3)cc21 | inactive
36 | O=C(Nc1cccc(S(=O)(=O)N2CCOCC2)c1)C(c1ccccc1)N1CCCCC1 (centres undefined) | inconclusive [inhibitor, single point]
37 | Cc1ccc(S(=O)(=O)CCc2nc3ccccc3n2CCC#N)cc1 | inconclusive [inhibitor, single point]
38 | CC(CC(=O)c1ccccc1)=NCCCN=C(C)CC(=O)c1ccccc1 | inconclusive [inhibitor, single point]
39 | CCNC(=O)C1(C)CCN(Cc2ccc(-c3ccccc3)cc2)C1 (centres undefined) | inconclusive [inhibitor, single point]
40 | CCOc1ccc(S(=O)(=O)NCCC(=O)NCC(c2ccccc2OC)N2CCCC2)cc1 (centres undefined) | inconclusive [inhibitor, partial curve, poor fit]
41 | Cc1cccc(-n2ncc(C(=O)NCc3ccco3)c2C2CCN(C(=O)OC(C)(C)C)CC2)c1 | inconclusive [inhibitor, single point]
42 | C=CCOC(=O)C1=C[C@H](c2ccc(Br)cc2)C[C@H](OCc2ccc(CO)cc2)O1 | inconclusive [inhibitor, single point]
43 | Fc1cccc(CCN2C(=S)NC[C@@H]2CC2CCCCC2)c1 | inconclusive [inhibitor, single point]
44 | O=[N+]([O-])c1ccc(Cl)cc1N/N=C/c1ccncc1 | inactive

Row | Compound | Potency
45 | O=C(Nc1ccccc1Cl)C1C2CCCCC21 (centres undefined) | inconclusive [inhibitor, single point]
46 | CCc1cc(-c2n[nH]c(=S)n2CC(C)C)cs1 | inconclusive [inhibitor, partial curve]
47 | CN(C)CCCNc1nc2cc(-c3ccsc3)sc2c(=O)n1C | inconclusive [inhibitor, partial curve, poor fit]
48 | CCN(CC)CCNC(=O)C(Oc1ccccc1)Oc1ccccc1 | inconclusive [inhibitor, single point]
49 | Cc1ccc(C(=O)N2CCN(c3ccc(C(F)(F)F)cn3)CC2)o1 | inconclusive [inhibitor, single point]
50 | COc1ccc(C(CNS(=O)(=O)c2ccc(NC(C)=O)c(OC)c2)N2CCCCC2)cc1 (centres undefined) | inactive
51 | ONC(=Nc1ccccc1Cl)c1ccccc1Cl | inconclusive [inhibitor, partial curve]
52 | CCOc1ccc(-c2cc(N3C(=O)Nc4ccccc4N3O)n[nH]2)cc1 | inconclusive [inhibitor, single point]
53 | CCN(CCC(=O)Nc1ccc(Br)c(C)c1)Cc1ccccc1 | inconclusive [inhibitor, partial curve, poor fit]
54 | O=C(NCCc1ccc(Cl)cc1Cl)c1cncc(Br)c1 | inconclusive [inhibitor, partial curve]
55 | NC(=O)c1ccc(-c2ccc(N3C(c4ccsc4)=Cc4ccc(F)cc4C3CC(=O)c3ccco3)cc2)cc1 (centres undefined) | inconclusive [inhibitor, single point]
56 | CC[C@]12c3[nH]c4ccc(Cl)cc4c3CCN1C(=O)[C@@H](CC(=O)NCC13CC4CC(CC(C4)C1)C3)C[C@@H]2C(=O)N1CCN(C(=O)C2CC2)CC1 | inconclusive [inhibitor, single point]
57 | COC(=O)C1=C(C)NC(=O)C1(NS(=O)(=O)c1ccc(NC(C)=O)cc1)C(F)(F)F (centres undefined) | inconclusive [inhibitor, full curve, poor fit]
58 | CC1(C)CC(N2CCCC2)=CC(=[N+]2CCCC2)C1 | inconclusive [inhibitor, partial curve]
59 | CCN1C(=O)[C@@H]2[C@H](C1=O)[C@@H]1C(=O)Nc3ccccc3C(=O)N1[C@@H]2c1ccc(OC)cc1 | inactive
60 | O=C(Cc1sc(-c2ccccc2Cl)nc1-c1ccccc1)Nc1ccc(F)cc1 | inconclusive [inhibitor, full curve, poor fit]
61 | Cc1ccc(N2CCN(C(=O)c3c(C)oc4nc(C)nc(N5CCCC5)c34)CC2)c(C)c1 | inconclusive [inhibitor, single point]
62 | COc1ccccc1C(=O)n1nc(-c2ccccc2)nc1NCc1ccco1 | inconclusive [inhibitor, single point]
63 | COc1ccc(NC(=O)c2sc3nc4c(cc3c2N)CCCCCC4)cc1Cl | inconclusive [inhibitor, full curve, poor fit]
64 | O=C(NC1CCCc2ccccc21)c1cc(F)cc(F)c1 (centres undefined) | inconclusive [inhibitor, single point]

Source: PubChem BioAssay AID624417 (National Center for Advancing Translational Sciences (NCATS), 2012)
